# From publication PMC4336329 (PLoS ONE, 2015)
# Screen size: about 310,000 compounds; about 2,200 (0.71%) showed an effect of 50% or more. The effect is printed as a negative number. This is one part of the list.
# Target: human ether-à-go-go-related gene (hERG) potassium channel (human, UniProt Q12809)
# Experiment: primary screen, population patch clamp on CHO cells stably expressing hERG
# Chain of human ether-à-go-go-related gene (hERG) potassium channel (Q12809 whole entry, looked up): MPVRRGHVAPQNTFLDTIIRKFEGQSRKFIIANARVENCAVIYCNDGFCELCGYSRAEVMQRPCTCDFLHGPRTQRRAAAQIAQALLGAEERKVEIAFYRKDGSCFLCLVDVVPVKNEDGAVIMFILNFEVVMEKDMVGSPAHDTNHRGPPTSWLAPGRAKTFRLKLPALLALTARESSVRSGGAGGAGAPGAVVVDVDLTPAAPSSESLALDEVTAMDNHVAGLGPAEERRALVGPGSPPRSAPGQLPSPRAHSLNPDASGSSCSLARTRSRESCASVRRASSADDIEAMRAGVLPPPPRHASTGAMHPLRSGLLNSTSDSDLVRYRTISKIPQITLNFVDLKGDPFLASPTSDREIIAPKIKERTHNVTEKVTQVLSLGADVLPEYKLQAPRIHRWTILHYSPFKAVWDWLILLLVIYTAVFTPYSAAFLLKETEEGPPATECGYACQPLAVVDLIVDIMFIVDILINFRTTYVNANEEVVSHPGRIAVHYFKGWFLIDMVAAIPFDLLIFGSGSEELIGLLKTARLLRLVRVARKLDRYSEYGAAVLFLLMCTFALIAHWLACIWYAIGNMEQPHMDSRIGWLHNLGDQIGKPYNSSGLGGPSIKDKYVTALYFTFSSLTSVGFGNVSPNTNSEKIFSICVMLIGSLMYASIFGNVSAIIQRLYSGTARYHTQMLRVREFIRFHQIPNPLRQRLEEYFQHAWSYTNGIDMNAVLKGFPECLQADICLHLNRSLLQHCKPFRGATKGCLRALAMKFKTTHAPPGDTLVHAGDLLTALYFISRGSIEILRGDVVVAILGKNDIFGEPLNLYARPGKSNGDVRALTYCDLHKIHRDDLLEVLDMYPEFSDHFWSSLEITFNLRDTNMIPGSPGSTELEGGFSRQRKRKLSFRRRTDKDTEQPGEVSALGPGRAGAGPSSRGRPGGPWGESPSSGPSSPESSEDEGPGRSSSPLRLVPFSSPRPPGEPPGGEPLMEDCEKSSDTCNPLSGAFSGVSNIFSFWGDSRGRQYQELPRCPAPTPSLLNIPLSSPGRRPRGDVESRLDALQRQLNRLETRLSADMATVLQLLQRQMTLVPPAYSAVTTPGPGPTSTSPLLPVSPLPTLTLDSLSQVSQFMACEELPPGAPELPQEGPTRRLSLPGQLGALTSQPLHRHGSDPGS
row,Compound,"hERG current change (%, negative = inhibition) at 1uM [%]"
1,N#CCSc1nc2ccccc2c(=O)n1CCCC(=O)NCC1CCCO1 (stereo not shown),3.29
2,C=CCOc1ccc2c(OC)c3ccoc3nc2c1OC,15.8
3,CCOC(=O)C1=C(C(C)=O)C(c2cccnc2)C(C#N)=C(N)O1 (stereo not shown),4.41
4,CNC(=S)NCCc1ccc(OC)cc1,1.1
5,CC(CCc1ccccc1)NC(=O)CN1CCN(c2ccccc2)CC1 (stereo not shown),-10.4
6,CCO[C@@H]1OC(C(=O)Nc2ccccc2)=C[C@H](c2coc3ccccc3c2=O)[C@H]1CCCO,-2.01
7,O=C(COC(=O)CNC(=O)c1ccc(Cl)cc1Cl)NC1CCCCCCC1,10.9
8,CN(Cc1c(F)cccc1Cl)c1ccc(S(=O)(=O)N2CCOCC2)cn1,9.85
9,CC(C)Nc1nc2n(c(=O)n1)CCN2C(C)C,7.58
10,COc1ccc(NC2CCCN(C(=O)c3ccc4nc(C)c(C)nc4c3)C2)cc1OC (stereo not shown),8.28
11,COc1ccc(C(C)(C)C)cc1NC(=O)COC(=O)c1cc(SC)ccc1Cl,6.72
12,COc1ccc(C(=O)N2CCOCC2)cc1S(=O)(=O)N1CCCc2ccccc21,-5.13
13,CCn1nnc(NC(=O)C(C)Oc2ccc(Cl)cc2Cl)n1 (stereo not shown),10.5
14,S=C(NCc1ccccn1)Nc1ccc(Cl)c(Cl)c1,11.1
15,CC(C)(OC(=O)c1ccc(C#N)cc1)c1cc2ccccc2c(=O)o1,-15.3
16,CCc1ccc(N=C2NC(=O)/C(=C/c3cc(OC)c(O)c(OC)c3)S2)cc1,15.2
17,Cc1ccccc1N(C(=O)CNC(=O)c1ccco1)C(C(=O)NC1CCCCC1)c1cccnc1 (stereo not shown),7.38
18,O=C(O)CCc1nnc2n(Cc3ccc(F)cc3)c(=O)c3ccccc3n12,10.3
19,Cc1ccc(/C=N/NC(=O)CSc2nc3ccccc3o2)cc1,9.37
20,O=C(N=C1N=C2C=CC=CN2Cc2ccccc21)c1ccc(S(=O)(=O)N2CCOCC2)cc1,10.2
21,CCn1c2ccccc2c2cc(NC(C)=O)ccc21,6.39
22,CC1CCCN(S(=O)(=O)c2ccc3c(c2)c(=O)nc2ccc(Cl)cn23)C1 (stereo not shown),6.42

row,Compound,"hERG current change (%, negative = inhibition) at 1uM [%]"
1,CCn1c(=O)cc(NC2=NCC(C)CN2c2cccc(Cl)c2)n(C)c1=O (stereo not shown),-7
2,Cc1nn(C)c(Oc2cccc(Cl)c2)c1C=O,9.61
3,CN(C)CCNC(=O)c1sc2cccc(F)c2c1Cl,8.33
4,Cc1ccc(C)n1-c1sc2c(c1C#N)CCCC2,12.5
5,CC(C)(C)NC(=O)COc1ccc(CNc2ncn[nH]2)cc1,10.3
6,O=C(O)c1cc([N+](=O)[O-])ccc1C(=O)Nc1cccc([N+](=O)[O-])c1,9.27
7,CCc1nc2ccccc2c(=O)n1-c1ccccc1OC,7.62
8,Cc1ccc(NC(=O)CN2C(=O)N/C(=C/c3cccn3-c3ccc(C(=O)O)cc3)C2=O)cc1,18.9
9,CC(=O)Nc1cccc(N=NN2CCCCC2)c1,7.43
10,Cc1[nH]c2ccccc2c1CCNCc1cccnc1.Cl,12.9
11,c1cncc(CN=C2Nc3ccccc3CS2)c1,6.22
12,COc1ccc(OC)c(Nc2ncnc3ccc(Br)cc23)c1,12.3
13,C#CCOCCOCCOCCNc1nc(N2CCN(C(=O)[C@H]([C@@H](C)O)n3cc(CCCC[NH3+])nn3)CC2)nc(N2CCN(C(=O)[C@H]([C@@H](C)CC)n3cc(CCCC[NH3+])nn3)CC2)n1.[Cl-],14.2
14,COCc1cc(CN2CCCC(C(=O)Nc3ccc(-c4ccco4)cc3)C2)ccc1OC (stereo not shown),3.79
15,Cc1ccc(C2(C)NC(=O)N(CC(=O)Nc3cccnc3Cl)C2=O)cc1 (stereo not shown),15.2
16,CC1(C)c2[nH]c3ccccc3c2C[C@@H]2C(=O)N(Cc3ccco3)C(=O)N21,0.515
17,COC(=O)c1sccc1-c1ccc(/C=N/OCc2c(Cl)cccc2Cl)o1,0.955
18,COc1ccccc1NC(=S)N1CCOCC1,16
19,CCCNC(=O)CC(NS(=O)(=O)c1ccc(Cl)cc1)c1ccco1 (stereo not shown),-5.47
20,COc1ccc(OCCN2C(=O)NC3(CCc4ccccc4C3)C2=O)cc1 (stereo not shown),-6.02
21,COc1ccc(N2C(=O)/C(=C/N(C)C)NC2=S)cc1,16.8
22,O=C(CSc1cccc[n+]1[O-])NN(c1ccccc1)c1ccccc1,13.5

row,Compound,"hERG current change (%, negative = inhibition) at 1uM [%]"
1,COc1ccccc1N1C(=O)c2ccccc2NC1c1ccc(O)cc1 (stereo not shown),13.1
2,COc1ccc(-c2[nH]ncc2CN(CCO)CC23CC4CC(CC(C4)C2)C3)c(OC)c1,11
3,Cl.OC(CC#CCN1CCOCC1)(c1ccccc1)c1ccccc1,9.39
4,CCOC(=O)c1oc2cc(O)cc(O)c2c(=O)c1OCc1ccccc1,12.8
5,O=C(CSc1ncn[nH]1)Nc1c(Br)cc([N+](=O)[O-])cc1Br,8.19
6,CCOC(=O)C1CCCN(c2nc3c(C)cccn3c(=O)c2/C=C(\C#N)C(=O)NCc2ccco2)C1 (stereo not shown),4.48
7,O=C(/C=C\c1ccccc1[N+](=O)[O-])Nc1ccccc1,13.6
8,COc1ccc(Cl)cc1NC(=O)CC(=O)Nc1cc(Cl)ccc1OC,15.3
9,CC(C)C(=O)NC(NC(=S)Nc1cccc2cccnc12)C(Cl)(Cl)Cl (stereo not shown),17.4
10,CC(C)=C1C2CCC1C1C(=O)N(CCc3ccccc3)C(=O)C21 (stereo not shown),9.06
11,COc1ccc(-n2c(=O)c(NC(=O)c3ccccc3)c3n(c2=S)CCCCC3)cc1,17.6
12,CC(C)(C)OC(=O)N1CCC[C@H]1C(=O)Nc1ccc(Br)cc1,14.2
13,CN(C)c1ccc(/C=N/NC(=O)C(O)c2ccc(Br)cc2)cc1 (stereo not shown),10.8
14,Cc1cccc(OC(=O)n2c(=S)oc3cc(Cl)ccc32)c1,14.1
15,CCCn1c(SCC(=O)NC(=O)NC(C)(C)C)n[nH]c1=O,18.6
16,CC(C)CCN1CCN(Cc2cn[nH]c2C2CCCCC2)CC1CCO (stereo not shown),12.8
17,CC(Cc1ccsc1)NC(=O)CCc1nnc(CCc2ccccc2)o1 (stereo not shown),15.1
18,CC(=NCCN(C)C)c1c(O)n(Cc2ccccc2)c(=O)[nH]c1=O,9.59
19,Cc1onc(-c2ccccc2)c1C(=O)NCc1cccs1,4.18
20,Cc1ccc(S(=O)(=O)N2CCN(C(=O)COC(=O)C3CCC3)CC2)c(C)c1,-4.85
21,COc1ccc(F)c(CN2CCC(CO)(Cc3cccc(C(F)(F)F)c3)CC2)c1,-1.43
22,N#Cc1ccc(CO/N=C/c2ccccc2)cc1,14.5

row,Compound,"hERG current change (%, negative = inhibition) at 1uM [%]"
1,Cc1ccc2cc(C#N)c(N3CCN(C(=O)c4cccs4)CC3)nc2c1,-1
2,O=C(NCC(=O)N1CCCC(C(F)(F)F)C1)c1ccc(Br)o1 (stereo not shown),-3.27
3,COc1ccccc1OCCCn1cc(C(C)=O)c2ccccc21,3.53
4,OCC1(Cc2cccc(Cl)c2)CCCN(Cc2cnn(-c3ccccc3)c2)C1 (stereo not shown),-7.31
5,COc1ccc(NC(=O)c2cc3ccccc3oc2=O)c(OC)c1,20.1
6,COc1ccccc1NC(=O)Nc1ccc(Cl)c(S(=O)(=O)Nc2ccccc2OC)c1,5.87
7,Cc1ccc2oc(C(=O)Nc3nnc(CC(C)C)s3)c(C)c2c1,11.5
8,COc1ccc(N2C3=C(CC4=C2CCCC4=O)C(=O)CCC3)cc1,3.34
9,C/C(=N\NC(=O)C1COc2ccccc2O1)c1cc2ccccc2o1 (stereo not shown),15.4
10,Cc1cc(C(=O)N/N=C/c2cccs2)n[nH]1,7.2
11,Cc1nc2ccccc2c(=O)n1Cc1ccc([N+](=O)[O-])cc1,-64.8
12,Cc1ccc(NC(=O)CSc2nc3ccccc3c(=O)n2CCCC(=O)NCC2CCCO2)cc1 (stereo not shown),6.07
13,O=C(CCC(=O)N1CC2C[C@@H](C1)Cn1c2cccc1=O)NCCc1ccccc1F,-0.0918
14,O=C(CNC(=O)c1ccco1)OCC(=O)c1ccc2c(c1)CCCC2,8.93
15,Cc1cccc(S(=O)(=O)c2c(N)n(/N=C/c3ccccc3)c3nc4ccccc4nc23)c1,3.01
16,COn1c(-c2ccc(Cl)cc2Cl)nc2ncccc21,7.52
17,N#Cc1cccc(NC(=O)Cn2cnc(S(=O)(=O)N3CCCCC3)c2)c1,13.4
18,O=C(NCCCn1ccnc1)C(=O)Nc1ccccc1,14.7
19,Cc1cccc(NC(=O)NN2CCN(C)CC2)c1C,17.2
20,O=C(/C=C/c1ccco1)NC(=S)NNC(=O)c1ccco1,13.5
21,COc1ccc([C@@H]2[C@@H]3C(=O)N(C(C)(C)C)C(=O)[C@@H]3[C@]3(CC(C)C)C(=O)N(c4cccc(F)c4)C(=O)N23)cc1,15.3
22,COc1cc(C(C)=O)ccc1OCC(=O)N(CCC1=CCCCC1)c1c(N)n(Cc2ccccc2)c(=O)[nH]c1=O,15.5
